# Out of some 350,000 compounds screened, about 31,000 (8.9%) were called active. Inconclusive means that the source gave no clear call. Such entries were picked first, then a sample of the others. The call rests on the fitted dose curve; in most records, active means well fitted inhibition curve with a large enough effect; inconclusive means small, poorly fitted or top-dose-only effect; inactive means no such curve, though single readings can be large or run the other way. Where the call is inconclusive, the potency comes from a doubtful curve fit.
# Target: Histone-lysine N-methyltransferase EHMT2 (Homo sapiens) (UniProt Q96KQ7)
# Sequence of UniProt Q96KQ7 (Q96KQ7 whole entry, looked up): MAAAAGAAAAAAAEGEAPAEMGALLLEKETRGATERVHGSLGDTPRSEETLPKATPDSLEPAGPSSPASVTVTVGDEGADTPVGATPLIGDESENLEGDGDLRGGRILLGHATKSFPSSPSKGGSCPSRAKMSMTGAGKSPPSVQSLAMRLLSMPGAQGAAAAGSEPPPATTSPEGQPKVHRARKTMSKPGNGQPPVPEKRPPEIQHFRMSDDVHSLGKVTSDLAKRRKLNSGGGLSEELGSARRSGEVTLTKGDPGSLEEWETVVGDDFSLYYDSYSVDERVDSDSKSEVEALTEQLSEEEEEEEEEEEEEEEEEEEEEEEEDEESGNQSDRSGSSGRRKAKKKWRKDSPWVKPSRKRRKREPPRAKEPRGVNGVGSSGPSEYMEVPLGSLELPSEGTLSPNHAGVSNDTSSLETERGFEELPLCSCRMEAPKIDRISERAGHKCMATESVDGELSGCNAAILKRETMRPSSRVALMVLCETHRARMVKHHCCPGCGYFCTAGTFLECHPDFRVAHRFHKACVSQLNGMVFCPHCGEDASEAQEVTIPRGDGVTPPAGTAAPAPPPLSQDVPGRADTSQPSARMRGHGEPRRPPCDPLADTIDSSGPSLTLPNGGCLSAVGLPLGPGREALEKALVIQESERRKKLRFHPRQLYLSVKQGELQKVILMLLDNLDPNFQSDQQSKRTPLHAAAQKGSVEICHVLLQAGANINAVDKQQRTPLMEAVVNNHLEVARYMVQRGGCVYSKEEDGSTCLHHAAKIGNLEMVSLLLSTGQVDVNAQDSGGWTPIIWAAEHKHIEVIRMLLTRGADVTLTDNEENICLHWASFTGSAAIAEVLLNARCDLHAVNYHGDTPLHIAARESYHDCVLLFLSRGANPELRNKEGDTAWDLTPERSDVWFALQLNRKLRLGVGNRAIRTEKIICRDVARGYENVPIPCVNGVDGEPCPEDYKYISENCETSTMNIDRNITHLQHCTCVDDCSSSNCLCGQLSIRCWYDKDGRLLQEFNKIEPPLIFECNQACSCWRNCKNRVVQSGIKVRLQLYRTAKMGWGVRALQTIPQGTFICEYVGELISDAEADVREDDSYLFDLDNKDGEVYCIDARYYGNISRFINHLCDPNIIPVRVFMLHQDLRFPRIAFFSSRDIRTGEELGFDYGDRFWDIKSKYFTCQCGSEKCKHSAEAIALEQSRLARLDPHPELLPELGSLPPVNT
# Assay: qHTS Assay for Inhibitors of Histone Lysine Methyltransferase G9a; further: nearly all actives have a fitted effect of over 75% in size
# Settings: G9a H3K9 monomethylation, AlphaScreen, 2 h; activity, negative = inhibition: at 59 µM (top of the series) unless noted
# How it was run: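 Chemiluminescent proximity detection of H3K9 monomethylation, read after 10 min bead incubation in the dark. Reaction: 20 nM G9a, 500 nM biotin-H3K9 peptide, 20 uM SAM cofactor, 2 h, room temperature, following 15 min enzyme-compound preincubation.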
# On the % scale 0 is the no-effect control and ±100 the full control effect; potency means the concentration at half of the fitted maximal effect; tags describe the fitted curve by direction and shape.
Compound,Potency,"activity, negative = inhibition"
COc1ccc(C2CC(=O)c3cc(-c4nc(-c5cccc([N+](=O)[O-])c5)cs4)c(=O)n(-c4ccc(C)c(C)c4)c3C2)cc1 (stereo not given),active: 11.2 µM,
C=CCC(=O)NC1CCCc2c1cnn2-c1cc(F)cc(F)c1 (stereo not given),,inactive: 19.6% [at 102 µM]
O=C(NNc1nc(-c2ccc(Cl)cc2)cs1)c1ccco1,"inconclusive: 0.141 µM [inhibitor, full curve, poor fit]",
O=C(NCCc1ccccn1)c1cc(-c2ccc(Cl)cc2)nc2ccccc12,"inconclusive: 2 µM [inhibitor, full curve, poor fit]",
O=C(NCc1ccc2c(c1)OCO2)c1ccc2c(c1)OCCO2,"inconclusive: 39.8 µM [inhibitor, single point]",
CC(=O)c1ccccc1NC(=O)CSc1nnc(Cc2csc(C)n2)o1,"inconclusive: 50.1 µM [inhibitor, partial curve, poor fit]",
COc1ccc(-c2cn3cc(C(F)(F)F)cc(Cl)c3n2)cc1,,inactive: 49.6% [at 12.7 µM]
O=C(Nc1c(C(=O)N2CCN(c3ccc(F)cc3)CC2)oc2ccccc12)c1c(F)cccc1F,"inconclusive: 3.55 µM [inhibitor, partial curve, poor fit]",
O=C(CC(Nc1ccc(F)cc1)C(=O)OCC(=O)c1cccs1)c1ccccc1 (stereo not given),"inconclusive: 28.2 µM [inhibitor, single point]",
O=C(NCCN1CCOCC1)c1cccc(S(=O)(=O)Nc2ccc(F)cc2)c1,,inactive: 8.8% [at 12.7 µM]
COc1ccc2c(CN(C)c3ccccc3)cc(=O)oc2c1,,inconclusive: -106% [inhibitor]
COc1ccc(C(CNC(=O)c2sccc2C)N2CCOCC2)cc1 (stereo not given),,inactive: 12.3% [at 2.33 µM]
CCN(CC)CCCN1C(=O)C(=O)/C(=C(/O)c2ccc(Cl)cc2)C1c1ccccn1 (stereo not given),"inconclusive: 3.16 µM [inhibitor, partial curve, poor fit]",
COc1cc(OC)c(-c2nnc3n(CCc4ccccc4)c(=O)c4ccccc4n23)cc1OC,,inactive: -10.7% [at 102 µM]
O=C(NN1C(=O)/C(=C/c2cccs2)SC1=S)c1ccccc1,,inactive: 7.11%
Cc1c([N+](=O)[O-])c2ccc(O)cc2n1-c1ccccc1,,inactive: -28.9% [at 102 µM]
Cc1c(-c2ccccc2)cn2c1-c1ccc(C)n1CC2,active: 44.7 µM,
CCNC(=S)N(CCc1c(C)[nH]c2ccccc12)Cc1cccnc1,"inconclusive: 44.7 µM [inhibitor, partial curve]",
O=S(=O)(CCC1CCCCN1)c1ccccc1 (stereo not given),,inactive: 3.42% [at 102 µM]
CC(C)NC(=O)c1onc(CSc2nc3ccccc3[nH]2)c1C(=O)NC(C)C,active: 50.1 µM,
COC(=O)c1ccc(CSc2ccc3nnc(-c4cccnc4)n3n2)o1,active: 25.1 µM,
Cc1ccc(S(=O)(=O)N2CCCC2)cc1C(=O)NCc1ccccc1CN1CCCC1,,inactive: 8.65% [at 12.7 µM]
O=C(O)/C=C/C(=O)Nc1ccc(OC(F)(F)F)cc1,"inconclusive: 50.1 µM [inhibitor, partial curve]",
COc1ccccc1CC(=O)Nc1ccc(S(=O)(=O)N2CCCCC2)cc1,"inconclusive: 79.4 µM [inhibitor, single point]",

Compound,Potency,"activity, negative = inhibition"
COc1ccc(S(=O)(=O)N(C)C)cc1NC(=O)Cc1c[nH]c2ccccc12,"inconclusive: 50.1 µM [inhibitor, partial curve, poor fit]",
COc1ccc(C(NC(=O)/C=C\c2ccco2)c2ccc(OC)c(OC)c2)cc1 (stereo not given),active: 25.1 µM,
Cc1ccc2oc(=O)c3cc(C(=O)Nc4ccc(F)cc4F)sc3c2c1,,inactive: 11.8%
CSc1nsc(SCC(=O)Nc2ccc(C(C)=O)cc2)n1,"inconclusive: 100 µM [inhibitor, single point]",
O=C(O)c1cccc2c1C(=O)N(Cc1ccncc1)C2,,inactive: 4.02% [at 102 µM]
COc1ccccc1OCCn1c(NC(=O)c2ccc(Cl)cc2)nc2ccccc21,,inactive: 14.9%
COc1ccc(-c2nc3ccccc3s2)cc1NC(=O)COc1ccccc1C,,inactive: 6.94%
CC(OC(=O)c1cccc(-n2cnnn2)c1)c1nc2ccccc2c(=O)[nH]1 (stereo not given),,inactive: -14.1% [at 12.7 µM]
COC(=O)C(CC(=O)c1ccc(Br)cc1)n1ccnc1 (stereo not given),"inconclusive: 0.891 µM [inhibitor, full curve, poor fit]",
CN(C)c1ccc(C(c2ccc(N(C)C)cc2)c2ccc([N+](=O)[O-])cc2)cc1,active: 5.01 µM,
Cc1ccccc1OCC(=O)N/N=C/c1cccc(Oc2ccc([N+](=O)[O-])cc2[N+](=O)[O-])c1,"inconclusive: 50.1 µM [inhibitor, single point]",
COc1ccc2c3c([nH]c2c1)[C@H]1C[C@H]2[C@H](C[C@@H](O)[C@H](OC)[C@H]2C(=O)O)CN1CC3,"inconclusive: 25.1 µM [inhibitor, partial curve, poor fit]",
CC(=O)c1c(CC(=O)O)[nH]n(-c2nc3ccccc3s2)c1=O,"inconclusive: 22.4 µM [inhibitor, partial curve, poor fit]",
Fc1ccc(-c2nc3nc4ccccc4nc3n2Cc2ccco2)cc1,,inactive: -44.3% [at 102 µM]
CCCN1C(=O)c2[nH]nc(-c3ccccc3O)c2C1c1ccc(OCc2ccccc2)c(OCC)c1 (stereo not given),,inactive: 17.7%
CCSC1=C(C#N)C(c2cccc(Br)c2)CC(=O)N1 (stereo not given),"inconclusive: 1.26 µM [inhibitor, full curve, poor fit]",
COc1cc(C(=O)OCC(=O)N(C)c2ccccc2)cc(OC)c1OC,,inactive: -8.13% [at 102 µM]
CC(C)N1CC(C(=O)Nc2ccc(F)c(Cl)c2)CC1=O (stereo not given),"inconclusive: 100 µM [inhibitor, single point]",
Cc1nn(CC(=O)NCc2cccc(Br)c2)c(=O)c2c1sc1ccccc12,"inconclusive: 35.5 µM [inhibitor, partial curve, poor fit]",
Cc1c(NS(=O)(=O)c2ccccc2)cc(Cl)c(O)c1C,"inconclusive: 3.16 µM [inhibitor, partial curve, poor fit]",
N=C(N)Sc1nc(N2CCCCC2)nc(N2CCCCC2)n1,,inactive: 8.7% [at 12.7 µM]
Clc1cncc(Cl)c1N/N=C/c1ccncc1,,inactive: -2.92%
CN(C)c1ccc(CNC(=O)CN2C(=O)c3cccnc3Oc3ccc(Cl)cc32)cc1,"inconclusive: 3.55 µM [inhibitor, partial curve, poor fit]",
CCCCn1c(C)csc1=Nc1cccnc1,"inconclusive: 89.1 µM [inhibitor, single point]",

Compound,Potency,"activity, negative = inhibition"
CC(=O)Nc1ccc(SCC(=O)NC(=O)c2ccccc2Br)cc1,"inconclusive: 22.4 µM [inhibitor, single point]",
CC(C)N(C(=O)Cn1c(SCC(=O)N2CCN(c3ccccc3)CC2)nc2ccccc21)C(C)C,,inactive: 2.09% [at 102 µM]
Cc1oc2ccc(O)c(CN3CCN(Cc4ccccc4)CC3)c2c1C(=O)Nc1ccccc1,"inconclusive: 14.1 µM [inhibitor, partial curve, poor fit]",
CCOC(=O)CCC(=O)OCC(=O)NC(C)C1CC2CCC1C2 (stereo not given),,inconclusive: -69.7% [inhibitor] [at 102 µM]
COc1ccc(NC(=O)CC2C(=O)N(c3cccc(OC)c3)C(=O)N2Cc2ccco2)cc1 (stereo not given),,inactive: -12.1% [at 102 µM]
O=C(CSc1nnc(-c2cccs2)n1Cc1ccco1)Nc1ccc2c(c1)OCO2,,inactive: -40.8% [at 12.7 µM]
COc1ccc(-c2nc3cnc(Nc4cccc(OC)c4)nc3n(C)c2=O)cc1,,inactive: 11.5% [at 0.501 µM]
O=C(Nc1ccc(Nc2ccccc2)cc1)N1CCOCC1,"inconclusive: 3.16 µM [inhibitor, single point]",
Cc1cccc(CS(=O)(=O)c2cn(CC(=O)N3CCOCC3)c3ccccc23)c1,active: 10 µM,
COc1ccc(/C=C2\Sc3ccc(C(=O)NCCCN4CCCC4)cc3N(C)C2=O)cc1OC,"inconclusive: 50.1 µM [inhibitor, partial curve, poor fit]",
CCOc1ccccc1C(=O)Nc1ccc2c(c1)C(=O)NC2=O,,inactive: -1.74% [at 102 µM]
Cc1cc(C)n(C(=O)CSc2nnc(SCC(=O)n3nc(C)cc3C)s2)n1,active: 79.4 µM,
Cc1sc(C(C2C(=O)CC(C)(C)CC2=O)C2C(=O)CC(C)(C)CC2=O)cc1[N+](=O)[O-],active: 7.94 µM,
NC(=O)C1CCN(C(=O)CCc2nc3sc4c(c3c(=O)[nH]2)CCCC4)CC1,active: 50.1 µM,
CC(C)(C)c1cc[n+](-c2[nH]c(=O)sc2/C=N/NC([S-])=Nc2ccccc2)cc1,active: 14.1 µM,
CCNC(=O)/C(=C\c1ccccc1)NC(=O)/C=C/c1ccccc1,"inconclusive: 35.5 µM [inhibitor, single point]",
O=C(NN1C(=O)CSC1=S)C(=O)NN1C(=O)CSC1=S,"inconclusive: 4.47 µM [inhibitor, full curve, poor fit]",
O=C(O)c1ccccc1-n1c(-c2ccccc2)cc2c1CCCC2=O,"inconclusive: 56.2 µM [inhibitor, partial curve, poor fit]",
O=C(C1COc2ccccc2O1)N1CCN(c2nc3c(F)cccc3s2)CC1 (stereo not given),,inactive: -14.9%
COc1ccccc1N1CCN(C(=O)c2cc(-c3ccc(Br)cc3)on2)CC1,"inconclusive: 79.4 µM [inhibitor, single point]",
CC1CCN(Cc2c(C(=O)N/N=C/c3cccc(Cl)c3)nnn2-c2nonc2N)CC1,"inconclusive: 89.1 µM [inhibitor, single point]",
CCOC(=O)C(C)(C)Sc1nc2c(cnn2-c2ccc(C)cc2)c(=O)[nH]1,"inconclusive: 22.4 µM [inhibitor, single point]",

# Source: PubChem BioAssay AID504332 (National Center for Advancing Translational Sciences (NCATS), 2011)
